Test [1] can be described thus: Cell-based coincidence reporter assay to measure PMP22 gene transcription in S16 Pmp22-F2sN cells - Confirmatory screen (AID 1508646). Particulars: S16 Schwann cells Pmp22-F2sN, dual luciferase, 24 h; measured here: NLuc reporter channel. An outline of the steps: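 S16 Schwann cells carrying a bioluminescent reporter in the Pmp22 3' UTR (Pmp22-F2sN) were treated with compounds for 24 h at 37C, then lysed; FLuc and then NLuc luminescence were read sequentially with a dual-luciferase kit on a CCD imager.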

Test [2] in a line: Validation of Assay for Modulators of Lamin A Splicing (AID 1459). Particulars: Lamin A splicing dual RFP/GFP fluorescence reporter, ratio. An outline of the steps:
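Readout: ratio of GFP (500-530 nm) to RFP (575-640 nm) total object intensity by 488 nm laser-scanning cytometry after 48 hrs. Cells were HeLa S3 clones carrying lamin A-EGFP minigene plus DsRed2 viability reporter; vehicle 0.5% DMSO final.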

Test [3] can be described thus: qHTS Assay for Lipid Storage Modulators (AID 1519). Particulars: Drosophila S3 cells, BODIPY lipid droplet/cell ratio, laser cytometry, cells loaded with oleic acid. A digest of the protocol:
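Cells seeded at 5,000 per well were treated with compounds over a concentration series and loaded with oleic acid (400 uM, as added). Lipid droplet fluorescence (488 nm excitation, 500-530 nm channel) was read by laser-scanning cytometry and normalized to 20 uM Triacsin C.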
For orientation: Quantitative high-throughput screening tests each substance at several concentrations.

Test [4] is described as follows: qHTS Validation Assay to Find Inhibitors of Chronic Active B-Cell Receptor Signaling (AID 485345). Particulars: ABC-DLBCL cells, chronic BCR signaling reporter. A digest of the protocol: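 TMD8 ABC-DLBCL cells with dox-inducible green luciferase–IκBα fusion and red native luciferase; compounds 46 uM–3 nM, 4 h at 37C with doxycycline in 0.5% FBS IMDM. Green/red ratio normalized to basal and 10 uM MG-132.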

Test [5] is described as follows: Nrf2 qHTS screen for inhibitors: Validation (AID 493153). The conditions noted are these: A549 ARE-Fluc reporter, 18-24 h; AC50: CellTiter-Fluor fluorescence read, measured here: cytotoxicity CellTiter-Fluor AC50; viability change: measured here: cytotoxicity max response. An outline of the steps:
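Dose-response validation uses reporter A549 cells with firefly luciferase under an antioxidant response element. Compounds stay on cells 18-24 h at 37°C, and luminescence indicates Nrf2-driven transcription.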

Test [6] in a line: qHTS Assay for Modulators of Human Peripheral Myelin Protein 22 (PMP22) Expression/Activity (AID 1967). Particulars: Cell-based PMP22 reporter, dual-color luciferase ratio. An outline of the steps: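 Mouse MSC80 Schwann line, Pmp22 promoter–CBG68 reporter, EF-alpha–CBR internal control. 24h compound exposure, 37 °C/5% CO2, DMEM + 10% FBS. Readout: corrected green/red luminescence ratio, normalized to untreated cells; concentration-response curves fitted and classified.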

Test [7] can be described thus: qHTS drug screen for cell cycle checkpoint inhibitors in PARPi-resistant BRCA-mutant ovarian cancer cell lines. (AID 1963452). The conditions noted are these: PEO1/OlaR viability, CellTiter-Glo luminescence, 96 h. An outline of the steps:
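PEO1, PEO4 and PEO1/OlaR ovarian cancer cells, 600 per well, exposed 96 h at 37C to a dilution series. Viability read by CellTiter-Glo luminescence, normalized to DMSO and empty wells; activity summarized as Z-AUC.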

A short description of test [8]: A High-Content qHTS Against Drug Library for the Identification of Small Molecules that Inhibit DYT1 Early Onset Primary Dystonia-Associated Cell Pathology (AID 1645839). Particulars: HEK293 Flp-In EGFP-delE TorsinA, punctate imaging, 48 h; measured here: cell count cytotoxicity. A digest of the protocol:
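Readout: %pathology, the punctate EGFP-TorsinA distribution from imaging, as the primary channel and cell count as the toxicity counterscreen. HEK293 Flp-In cells expressing delE TorsinA were induced with tetracycline and treated with compound for 48 h.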

Test [9] can be described thus: qHTS for identification of novel therapeutic agents for treatment of microphthalmiaassociated transcription factor (MiT) renal cell carcinoma (RCC) (AID 1963991).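 As to z-score: curves scaled with 100% = DMSO viability and 0% = empty wells.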 The conditions noted are these: CellTiter-Glo, 48 h; for z-score: stronger effect = lower value. An outline of the steps: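 UOK109/UOK124/UOK145 (TFE3 fusions, three partners); 500 cells/well; MIPE v4.0, 1912 cpds, 11 conc.; 48 h, 37 C; CellTiter-Glo, 15 min RT; lum. Norm.: DMSO 100%, empty 0%.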

Test [10] is described as follows: qHTS Assay for Inhibitors of PDE-IV (AID 607).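 Also: parental cells stimulated with forskolin 10 µM plus RO 20-1724 100 µM.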 The conditions noted are these: HEK293 ACTOne CNG channel cells, membrane potential fluorescence; measured here: parental cell counter-screen. A digest of the protocol:
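The readout is membrane depolarisation from a cAMP-sensing CNG channel, detected with a potential dye at ex 535/em 590. Cells were HEK293-derived (endogenous PDE-IV) at 1000 cells/well, titrated up to 22.9 uM final.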

The mark [11] stands for this setting: measured here: cell count channel max response.
Where [12] appears, read: measured here: lipid channel max response.
Where [13] appears, read: measured here: CBG/CBR ratio read-out.
The mark [14] stands for this setting: measured here: CBR control luciferase (viability counter).
[15] abbreviates: measured here: green reporter channel AC50, mouse Pmp22 promoter in mouse Schwann cells.
Where [16] appears, read: measured here: red reporter channel AC50, EF-alpha promoter control reporter in MSC80 mouse Schwann cells.
[17] abbreviates: TFE3-RCC UOK109 viability, measured here: UOK109 Z-AUC.
The mark [18] stands for this setting: TFE3-RCC viability, measured here: UOK124 Z-AUC.
The mark [19] stands for this setting: TFE3-RCC viability, measured here: UOK145 Z-AUC.
The mark [20] stands for this setting: TFE3-RCC viability, measured here: UOK145 cell viability.

From PubChem BioAssay (NCATS) come the findings set out here.

Where “and” joins values, the source holds several entries; their conditions need not be identical. Equal values may be shown once. The list shows a part of the results. Shown are side measurements of this screen, not its main read-out; they come without a call. For part of these data: Most of these compounds were active or inconclusive in the main read-out, so they are no random draw. For part of these data: Words in brackets tell the shape of the fitted curve; partial curves, single points and poor fits give uncertain potencies.
Tags tell the direction and shape of the fitted curve.

As usually defined, the AC50 is the concentration at which the activity in the assay is half-maximal. Consider `CCCc1oc2ccc(NS(=O)(=O)c3ccc(OC)cc3)cc2c1C(=O)OCC`, for which the AC50 in [1] was 17.2 µM [falling, partial curve, poor fit].

With `CCCC(=O)NCCc1c2n(c3ccc(OC)cc13)CCCc1ccccc1-2`, the concentration at half-maximal activity (AC50) in [2] (measured here: GFP channel) is 11.2 µM [rising, partial curve, poor fit]; in [4] (setting [13]) it was 13 µM [falling, partial curve]; in test [4] (setting [14]), 1.46 µM [rising, partial curve]. Further, the max response is 52.9% in [3] (setting [11]) and 57.5% in test [3] (setting [12]). The viability change in [5] was -7.15%.

For the molecule `Nc1ccn([C@@H]2O[C@H](CO)[C@@H](O)[C@@H]2O)c(=O)n1`, the concentration at half-maximal activity (AC50) is 0.0631 µM [falling, full curve] in test [2] (measured here: GFP channel); 95.3 µM [falling, single point] in test [6] (setting [15]); 10.7 µM [falling, full curve] in test [6] (setting [16]). The max response in [3] (setting [11]) is 63.1%; in test [3] (setting [12]), 63%.

On to `COCCCC/C(=N\OCCN)c1ccc(C(F)(F)F)cc1`, for which the AC50 in test [2] (measured here: GFP channel) is 35.5 µM [falling, single point]; in test [4] (setting [14]) it was 25.9 µM [falling, single point]. The max response in [3] (setting [11]) worked out at 48.5%; in test [3] (setting [12]) it was 44.7%.

For `O=S(=O)(NCCNC/C=C/c1ccc(Br)cc1)c1cccc2cnccc12`, the AC50 in test [2] (measured here: RFP channel) was 31.6 µM [falling, single point]; in [6] (setting [15]), 42.6 µM [falling, partial curve]; in [6] (setting [16]) it was 47.8 µM [falling, partial curve]; in [7] (measured here: PEO1 parental viability), 15.5 µM [falling, single point].

With `N#C/C(=C\c1c[nH]c2ccccc12)C(=O)c1ccc(O)c(O)c1`, the half-maximal activity concentration (AC50) in test [2] (measured here: GFP channel) was 11.2 µM [falling, partial curve, poor fit]; in test [6] (setting [16]), 67.5 µM [falling, partial curve]. Besides, the max response is -6.12% in test [3] (setting [11]) and -6.58% in test [3] (setting [12]).

`CN(C)CCCN1c2ccccc2CCc2ccc(Cl)cc21`: the half-maximal activity concentration (AC50) was 2.82 µM [falling, full curve, poor fit] in test [2] (measured here: RFP channel); 42.6 µM [falling, full curve] in test [6] (setting [15]); 37.9 µM [falling, full curve] in [6] (setting [16]); 6.51 µM [rising, single point] in test [4] (setting [14]); 3.98 µM [falling, full curve] in [8]; 17.4 µM [falling, partial curve, poor fit] in test [7] (measured here: PEO4 viability). For the same molecule, the AC50 in [9] (TFE3-RCC viability, measured here: UOK124 cell viability) is 23.5 µM [falling, partial curve]; in test [9] (setting [20]), 1.32 µM [falling, full curve]. For the same molecule, the max response was 35.1% and 32.5% in test [3] (setting [11]); 40.9% and 30.3% in test [3] (setting [12]). Besides, the results for the z-score in [9] (setting [17]), in [9] (setting [18]) and in [9] (setting [19]) were -1.89, 0.146 and -1.11, respectively.

Consider `CCN(C(=O)c1cc2c(s1)-c1ccccc1OC2)c1cccc(C(F)(F)F)c1`, for which the concentration at half-maximal activity (AC50) in test [1] is 43.2 µM [falling, single point].

With `CCCCCCCCCCCCCCCCCC(=O)OC(CC(=O)O)C[N+](C)(C)C` (centres undefined), the AC50 in test [2] (measured here: RFP channel) was 15.8 µM [falling, partial curve]; in test [6] (setting [16]) it was 26.9 µM [rising, partial curve]; in [4] (setting [14]), 2.91 µM [rising, partial curve]. Moreover, the max response is -37.5% in test [3] (setting [11]) and -36.1% in [3] (setting [12]). Further, the viability change in [5] was -5.87%.

For the molecule `N#CC(=C(\N)Sc1ccccc1N)/C(C#N)=C(/N)Sc1ccccc1N`, the AC50 is 2.82 µM [falling, partial curve, poor fit] in test [2] (measured here: GFP channel); 18.4 µM [falling, partial curve] in test [4] (setting [13]); 6.51 µM [falling, full curve] in test [4] (setting [14]). Also, in [5], the viability change is -8.46%.

`O=C(O)c1cccnc1Nc1cccc(C(F)(F)F)c1`: the half-maximal activity concentration (AC50) is 0.00501 µM [rising, full curve, poor fit] in test [10]; 14.1 µM [falling, partial curve] in test [2] (measured here: RFP channel); 39.8 µM [rising, single point] in test [3] (measured here: lipid (BODIPY) channel AC50); 0.301 µM [rising, full curve] in test [6] (setting [15]); 37.9 µM [falling, partial curve, poor fit] in test [6] (setting [16]); 16.4 µM [falling, partial curve] in [4] (setting [13]). For the same molecule, the AC50 is 8.2 µM [falling, partial curve] in test [4] (setting [14]) and 14.1 µM [falling, single point] in [8]. For the same molecule, the values for the max response in test [3] (setting [11]) and in test [3] (setting [12]) were 22% and 45.1%, respectively. In addition, the viability change in [5] was -6.38%.

For the molecule `COc1ccccc1N1CCN(CCN(C(=O)C2CCCCC2)c2ccccn2)CC1`, the half-maximal activity concentration (AC50) was 10 µM [falling, partial curve] in test [2] (measured here: RFP channel); 75.7 µM [falling, single point] in test [6] (setting [15]); 67.5 µM [falling, partial curve] in test [6] (setting [16]); 18.7 µM [falling, partial curve] in [9] (setting [20]). Moreover, the max response in test [3] (setting [11]) was found to be 50.5%; in test [3] (setting [12]) it was 48.8%. Moreover, the viability change in test [5] was -8.53%. Further, the z-score in [9] (setting [17]) was 0.384; in test [9] (setting [18]), 0.435; in test [9] (setting [19]), 0.286.
